Measurements reported in PubChem BioAssay AID651820 (National Center for Advancing Translational Sciences (NCATS), 2012).
About 12,000 (3.5%) of roughly 340,000 compounds were called active. Inconclusive results, whose numbers are uncertain, are shown with a selection of clear calls. Calls follow the shape of the dose curve; as a rule, active = well fitted inhibition curve with a large enough effect; inconclusive = small, poorly fitted or top-dose-only effect, or another doubt; inactive = no such curve, though single readings can be large or run the other way. Potencies of inconclusive entries are left out as doubtful fits.

experiment: qHTS Assay for Inhibitors of Hepatitis C Virus (HCV); settings: Huh7.5.1 HCVcc-Cre (HCVcc is cell-culture hepatitis C virus) infection, luciferase reporter, 44 h; activity change, negative = inhibition: at 41.8 µM (top of the series)
In short: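 Reporter virus HCVcc-Cre (~0.5 moi) infects cells exposed to compound; seeding density 1,000 cells/well with 4 h settling beforehand. Luminescence, 15 sec read, taken 44 h post-infection following a 15 min RT substrate incubation.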
% is scaled to controls: 0 for no effect and ±100 for the full control effect; potency is read from the fitted curve at half-maximal effect; tags tell the direction and shape of the fitted curve.

SMILES	Potency	activity change, negative = inhibition
N#C/C(=C\c1ccc(OCC(N)=O)cc1)c1ccccc1	inconclusive [inhibitor, single point]	
CCN(c1ccccc1)S(=O)(=O)c1ccc(C(=O)Nc2cccc(NC(C)=O)c2)cc1		inactive: -0.906%
Cc1cc(C)c2c3c(sc2n1)C(c1cccc(F)c1)C(C#N)=C(N)O3 (centres undefined)	inconclusive [inhibitor, partial curve, poor fit]	
CCOC(=O)c1sc2nc3n(c(=O)c2c1C)CCCCC3		inactive: -14.2%
O=C(COC(=O)c1ccccn1)NNC(=O)c1ccc([N+](=O)[O-])cc1		inactive: -0.758%
Cc1ccc(NC(=O)c2ccccc2OCc2ccc([N+](=O)[O-])cc2)nc1	inconclusive [inhibitor, partial curve, poor fit]	
Cc1ccc(S(=O)(=O)N2c3ccccc3OCC2c2ccccc2)cc1 (centres undefined)	active: 35.5 µM	
O=S(=O)(c1cccc(C(F)(F)F)c1)N1CCC(O)(c2cccnc2)CC1		inactive: 7.61%
CN1c2ccc([N+](=O)[O-])cc2CC2(C(=O)NC(=O)N(c3ccccc3)C2=O)C1c1ccccc1 (centres undefined)		inactive: 11.4%
O=C(Nc1cccc(O)c1)c1ccc(NC(=O)c2cccs2)cc1	inconclusive [inhibitor, single point]	
COc1cccc(NC(=O)[C@H](C)NC(=O)C2CCN(S(=O)(=O)c3ccc(C)cc3)CC2)c1		inactive: -29.6%
Cc1nn(Cc2ccc(Cl)c(Cl)c2)c(C)c1NC(=O)c1cc(-c2ccco2)on1	inconclusive [inhibitor, full curve]	
O=C(NC(Cc1ccccc1)C(=O)O)/C(=C\c1ccco1)NC(=O)c1ccccc1Br (centres undefined)	inconclusive [inhibitor, single point]	
OCc1ccc2c(c1)c(-c1ccc3c(c1)OCCO3)c(-c1ccccc1)n2-c1ccccc1	inconclusive [inhibitor, partial curve]	
Cc1ccccc1-c1nc(CN2CCC(C(=O)NCc3cccs3)CC2)c(C)o1	inconclusive [inhibitor, single point]	
Cc1[nH]n2c(=O)cc(-c3ccc([N+](=O)[O-])cc3)nc2c1-c1ccccc1	active: 10 µM	
O=C(C1CCN(S(=O)(=O)c2cccc3nsnc23)CC1)N1CC=C(c2ccccc2)CC1	inconclusive [inhibitor, single point]	
CC1CCN(CCCNC(=O)c2ccc3c(=O)n(CCc4ccccc4)c(=O)[nH]c3c2)CC1	active: 8.91 µM	
CCCN(CCC)S(=O)(=O)c1cc(Br)cc2c1N(C(=O)CC)CC2	inconclusive [inhibitor, single point]	
CCOC(=O)c1c(NC(=O)C(=O)N/N=C/c2ccccc2O)sc2c1CCCCC2	inconclusive [inhibitor, full curve]	
O=C(COC(=O)c1ccc2c(c1)OCCO2)Nc1ccc(F)cc1F		inactive: -13.3%
CCOc1cc(CNc2cccc3[nH]c(C)nc23)ccc1OC	inconclusive [inhibitor, single point]	
CSc1cccc(NC(=O)C2CCCN(S(=O)(=O)c3ccc(F)cc3)C2)c1 (centres undefined)	inconclusive [inhibitor, partial curve]	

SMILES	Potency	activity change, negative = inhibition
CCc1cc(C(=O)N2CCN(C(=O)c3ccccc3)CC2)sc1C	inconclusive [inhibitor, partial curve]	
CC(C)(C)C(=O)N1CCN(c2ccc(Cl)cc2[N+](=O)[O-])CC1		inactive: 9.11%
CCCNCc1cc(OCC)c(OCC(N)=O)cc1Br	inconclusive [inhibitor, partial curve]	
O=C(OCc1nc2scc(-c3ccccc3)c2c(=O)[nH]1)c1cc(Cl)ccc1[N+](=O)[O-]		inactive: -2.04%
CCC1CCCCN1C(=S)Nc1ccc(OC(F)F)cc1 (centres undefined)	inconclusive [inhibitor, partial curve, poor fit]	
COc1ccc(N2CCN(C(CNC(=O)C(=O)NCc3ccc4c(c3)OCO4)c3ccco3)CC2)cc1 (centres undefined)	inconclusive [inhibitor, partial curve]	
O=C(NCC(c1ccco1)N1CCc2ccccc2C1)c1ccc(Cl)c([N+](=O)[O-])c1 (centres undefined)	inconclusive [inhibitor, single point]	
CCCCN(Cc1ccccc1)C1CCN(CCc2ccccc2)CC1	inconclusive [inhibitor, partial curve]	
Cc1ccn2c(-c3csc(NCc4ccco4)n3)c(C)nc2c1	inconclusive [inhibitor, single point]	
Cc1nn(C)c(C)c1S(=O)(=O)N1CCCC(C(=O)NC2CCCCCC2)C1 (centres undefined)		inactive: -17.1%
O=C(Nc1nc2ccccc2[nH]1)c1cccc(Br)c1	inconclusive [inhibitor, single point]	
O=C(NC(C(=O)N/N=C/c1cccnc1)c1n[nH]c(=O)c2ccccc12)c1ccccc1 (centres undefined)		inactive: 28.1%
Cc1[nH]n(-c2ccccc2)c(=O)c1/C=N/NC(=O)COc1ccccc1[N+](=O)[O-]	inconclusive [inhibitor, single point]	
COc1cc(NC(=O)c2ccc(F)cc2)c(OC)cc1NC(=O)CN1CCOCC1	inconclusive [inhibitor, partial curve]	
Cc1ccccc1NC(=O)Cn1cnc2c(oc3nc4c(cc32)CCCC4)c1=O		inactive: -10.6%
CSc1ncccc1C(=O)OCc1ccccc1F		inactive: -14.6%
O=C(O)/C=C\C(=O)Nc1ccccc1N1CCN(c2ccccc2)CC1		inactive: 4.22%
C=C(C)COc1cc2oc(=O)c(CC(=O)N3C[C@H]4C[C@@H](C3)c3cccc(=O)n3C4)c(C)c2cc1Cl	inconclusive [inhibitor, single point]	
Cc1cccc(-c2onc3ccc(C4(C)OCCO4)cc23)c1	inconclusive [inhibitor, single point]	
O=C(NC1CCN(Cc2ccccc2)CC1)c1cc(S(=O)(=O)Nc2ccc(F)cc2)ccc1Cl	inconclusive [inhibitor, partial curve]	
C[C@]12C(=O)N(c3ccccc3)C(=O)N1[C@@H]1c3ccccc3OC[C@@H]1[C@H]2c1ccccc1	inconclusive [inhibitor, single point]	
CC(C)CN(CC(C)C)C(=S)Nc1ccc(Cl)cc1	inconclusive [inhibitor, single point]	
CCOC(=O)C(=CNc1ccc(NC2=NCC(C)S2)cc1)C(=O)OCC (centres undefined)	inconclusive [inhibitor, partial curve]	

SMILES	Potency	activity change, negative = inhibition
CCOc1ccccc1Nc1nnc(Cc2ccccc2Cl)c(=O)[nH]1	inconclusive [inhibitor, single point]	
COc1ccc(C(=O)O/N=C(\N)c2ccccc2Cl)cc1OC	active: 10 µM	
O=c1c2ccccc2c(-c2ccc(Cl)cc2)nn1-c1ccccc1	inconclusive [inhibitor, full curve]	
CCOc1ccc(N/C(=N/c2nc(C)cc(C)n2)NC(=O)CC)cc1	inconclusive [inhibitor, single point]	
CCN(CC(=O)Nc1ccc(OC)cc1)C(=O)c1cc2c(s1)CCCCC2	inconclusive [inhibitor, full curve, poor fit]	
O=C(CCc1ccccn1)N1CCCC(N2CCN(c3ccc(F)cc3)CC2)C1 (centres undefined)		inactive: 0.251%
Cc1nc(NC(=O)c2cncc(Br)c2)ccc1Br	inconclusive [inhibitor, single point]	
O=C(NN(CC(O)COc1ccccc1)CC(O)COc1ccccc1)c1ccccc1 (centres undefined)	inconclusive [inhibitor, full curve, poor fit]	
Cc1cccc2c(N)c3c(nc12)CCCC3 (tested in a mixture with another compound)	inconclusive [inhibitor, single point]	
O=C1CCC(C(=O)OC(C(=O)Nc2ccc([N+](=O)[O-])cc2Br)c2ccccc2)=NN1 (centres undefined)	inconclusive [inhibitor, single point]	
O=C(NC(=Nc1ccccc1)N1CCOCC1)Nc1ccccc1		inactive: 15.1%
COc1cc(C(=O)Nc2ccccc2C(=O)Nc2ccccn2)cc(OC)c1OC	inconclusive [inhibitor, partial curve]	
COc1ccc(C(=O)NCC(c2ccco2)N(C)C)cc1S(=O)(=O)NCc1ccc(Cl)cc1 (centres undefined)		inactive: 8%
O=C(NCc1cccnc1)C1CCN(C(=O)c2ccc(Cl)cc2Cl)CC1		inactive: 5.3%
Cc1ccc(C(=O)Nc2sc3c(c2C(=O)NCc2ccco2)CCCC3)cc1	inconclusive [inhibitor, full curve, poor fit]	
COc1ccc(Cc2nnc(Nc3ccc(C)cc3)o2)cc1OC	inconclusive [inhibitor, single point]	
Cc1ccnc(N/C=C(/NC(=O)c2ccccc2)C(=O)NN)n1		inactive: 9.65%
Cc1nc2ccccc2c2oc(C(=O)N3CCC(N4CCCCC4)CC3)cc12		inactive: -17.4%
COc1cccc(NC(=O)C2CCN(S(=O)(=O)c3ccccc3)CC2)c1		inactive: -11.8%
COc1ccc(-c2c(-c3ccsc3)oc3ccc(N4CCOCC4)cc23)cc1		inactive: -26.4%
[O-]/[N+](=C\c1ccccc1)c1ccc(Br)cc1		inactive: 6.65%
Cc1cccc(N(C)Cc2nnc(-c3cccc(Br)c3)o2)c1	inconclusive [inhibitor, single point]	
Cc1ccc(C)c2[nH]c(=O)c(CCNC(=O)Cc3cccs3)cc12		inactive: -6.63% [at 8.37 µM]
